Legend:
Test in all cases: SPR; imaging SPR (IBIS MX96); IgG immobilised on a carboxymethyldextran sensor (CMD200M) by carbodiimide chemistry with a Continuous Flow Microspotter, printed at 300 and 150 nM; soluble receptor as analyte from 20 uM, 1:3 over 8 points; 5 min association and 5 min dissociation; equilibrium KD (Scrubber 2)
Settings in all cases: both partners purified
[1] = target: RM JR4 IgG1 (rhesus macaque mAb, C1C2 Cluster A region) (rhesus macaque (Macaca mulatta))
[2] = target: RhDH827 IgG1 (rhesusized variant of human DH827) (rhesus macaque (Macaca mulatta))
[3] = target: RhDH677.3 IgG1 (rhesusized variant of human DH677.3) (rhesus macaque (Macaca mulatta))
[4] = target: Rh7B2 IgG1 (rhesusized variant of human 7B2) (rhesus macaque (Macaca mulatta))

B1: human FcγRIIIa (V158) (receptor)
chain: not shown
Kd [1]: 1700 nM | Kd [2]: 2400 nM | Kd [3]: 800 nM | Kd [4]: 1800 nM

— publication PMC8770954 (Frontiers in Immunology, 2021)
